The campaign covered roughly 310,000 compounds. About 2,200 (0.71%) showed an effect of 50% or more. The effect is printed as a negative number. Some of the results follow.
What follows are compounds tested against human ether-à-go-go-related gene (hERG) potassium channel (human, UniProt Q12809) (assay: primary screen, population patch clamp on CHO cells stably expressing hERG).
Chain of human ether-à-go-go-related gene (hERG) potassium channel (Q12809 whole entry, looked up): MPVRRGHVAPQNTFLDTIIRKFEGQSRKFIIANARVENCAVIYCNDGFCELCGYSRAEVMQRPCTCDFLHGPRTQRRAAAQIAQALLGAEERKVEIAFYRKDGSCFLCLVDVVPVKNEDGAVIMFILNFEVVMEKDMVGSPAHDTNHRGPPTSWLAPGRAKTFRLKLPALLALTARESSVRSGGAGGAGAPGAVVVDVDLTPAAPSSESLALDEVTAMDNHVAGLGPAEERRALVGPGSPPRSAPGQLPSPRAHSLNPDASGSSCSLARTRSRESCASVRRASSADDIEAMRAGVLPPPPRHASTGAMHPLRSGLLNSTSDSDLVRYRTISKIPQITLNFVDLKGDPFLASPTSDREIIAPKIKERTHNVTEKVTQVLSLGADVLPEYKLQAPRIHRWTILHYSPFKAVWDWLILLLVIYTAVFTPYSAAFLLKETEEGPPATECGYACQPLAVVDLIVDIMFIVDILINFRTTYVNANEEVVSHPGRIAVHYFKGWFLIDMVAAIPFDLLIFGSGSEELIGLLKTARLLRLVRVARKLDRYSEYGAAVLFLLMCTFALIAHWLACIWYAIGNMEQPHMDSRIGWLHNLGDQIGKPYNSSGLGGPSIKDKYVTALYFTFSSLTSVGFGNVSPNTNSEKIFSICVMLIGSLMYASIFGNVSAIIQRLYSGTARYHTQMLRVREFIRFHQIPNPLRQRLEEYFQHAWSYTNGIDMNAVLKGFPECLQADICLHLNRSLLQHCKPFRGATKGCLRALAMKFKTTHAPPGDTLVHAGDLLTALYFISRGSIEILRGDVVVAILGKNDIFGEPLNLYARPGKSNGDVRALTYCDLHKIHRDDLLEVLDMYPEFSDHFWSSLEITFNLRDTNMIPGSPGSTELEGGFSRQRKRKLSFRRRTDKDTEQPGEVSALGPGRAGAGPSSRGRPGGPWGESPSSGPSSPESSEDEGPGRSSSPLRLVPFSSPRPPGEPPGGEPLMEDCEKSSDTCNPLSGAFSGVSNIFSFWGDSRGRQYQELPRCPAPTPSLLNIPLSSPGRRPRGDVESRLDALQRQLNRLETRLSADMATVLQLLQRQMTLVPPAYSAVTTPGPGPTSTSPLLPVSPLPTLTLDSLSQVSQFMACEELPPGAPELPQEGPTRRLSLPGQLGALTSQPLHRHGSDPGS

**Q.** CCCS(=O)(=O)Nc1cccc(-c2ccc3nnc(C)n3n2)c1 was tested. Which “hERG current change (%, negative = inhibition) at 1uM” value did it give?
**A.** 2.58%

**Q.** Which “hERG current change (%, negative = inhibition) at 1uM” value does the source give for CC(=O)Nn1cnc2c(c1=O)C1(CCCC1)Cc1ccccc1-2 here?
**A.** 6.56%

**Q.** For CCN(Cc1ccccc1)C(=O)c1cccc(S(=O)(=O)N2CCN(Cc3ccccc3)CC2)c1, which “hERG current change (%, negative = inhibition) at 1uM” value is on record?
**A.** 8.93%

**Q.** O=C(O)CSCC(=O)NCc1ccc(Cl)cc1 was tested. Which “hERG current change (%, negative = inhibition) at 1uM” value did it give?
**A.** 0.953%

**Q.** Which “hERG current change (%, negative = inhibition) at 1uM” value does the source give for OCCCc1nc2ccccc2n1Cc1ccccc1 here?
**A.** 13.3%

**Q.** With Cc1nc2c(cnn2-c2ccccc2)c(=O)n1/N=C/c1ccccc1 as the compound, how does the “hERG current change (%, negative = inhibition) at 1uM” value read?
**A.** 7.36%

**Q.** For O=C(Cn1cnc2c(oc3ccccc32)c1=O)N1CCN(c2ccccc2)CC1, which “hERG current change (%, negative = inhibition) at 1uM” value is on record?
**A.** 8.58%

**Q.** Which “hERG current change (%, negative = inhibition) at 1uM” value does the source give for CCCCOc1cccc(C(=O)Nc2ccc(NC(=O)c3ccco3)cc2)c1 here?
**A.** 7.64%

**Q.** COc1cc(NC(=S)NNC(=O)C(C)(C)O)cc(OC)c1 was tested. Which “hERG current change (%, negative = inhibition) at 1uM” value did it give?
**A.** 14%

**Q.** Which “hERG current change (%, negative = inhibition) at 1uM” value does the source give for CCOC(=O)c1n[nH]c(=O)c2ccccc12 here?
**A.** 11.3%

**Q.** COc1cc(-n2c(=O)c3ccccc3n(Cc3cc(=O)n4ccccc4n3)c2=O)cc(OC)c1OC was tested. Which “hERG current change (%, negative = inhibition) at 1uM” value did it give?
**A.** 0.889%

**Q.** With Cc1ccc(C(=O)C(C)OC(=O)c2ccc(Cl)nc2)cc1 (stereo not drawn) as the compound, how does the “hERG current change (%, negative = inhibition) at 1uM” value read?
**A.** 3.15%

**Q.** For CCn1c(CNc2ccc(F)cc2)nnc1SCC(=O)Nc1ccc(OC)cc1, which “hERG current change (%, negative = inhibition) at 1uM” value is on record?
**A.** 5.57%

**Q.** With CC(C)CNC(=O)[C@H]1N2C(=O)c3ccccc3C2SC1(C)C (stereo partly drawn) as the compound, how does the “hERG current change (%, negative = inhibition) at 1uM” value read?
**A.** 14.5%

**Q.** How did the “hERG current change (%, negative = inhibition) at 1uM” value turn out when O=C(NC1CCCCCC1)C1CCN(S(=O)(=O)c2cnc[nH]2)CC1 was run?
**A.** 8.28%

**Q.** O=C1Nc2ccc(Br)cc2/C1=C/C(=O)c1ccc2c(c1)OCO2 was tested. Which “hERG current change (%, negative = inhibition) at 1uM” value did it give?
**A.** 11.9%

**Q.** How did the “hERG current change (%, negative = inhibition) at 1uM” value turn out when CC(C)CCOc1ccc(C2=NNC(=O)CC2)cc1 was run?
**A.** 12.7%

**Q.** With Cc1cccc(/C=N/NC(=O)C2CCCNC2=O)c1 (stereo not drawn) as the compound, how does the “hERG current change (%, negative = inhibition) at 1uM” value read?
**A.** 14.2%

**Q.** For CNC(=O)/C(C#N)=C/c1c(N2CCN(c3cccc(Cl)c3)CC2)nc2c(C)cccn2c1=O, which “hERG current change (%, negative = inhibition) at 1uM” value is on record?
**A.** 14.7%

**Q.** O=c1c2cnn(-c3ccccc3)c2ncn1Cc1cccc(Cl)c1 was tested. Which “hERG current change (%, negative = inhibition) at 1uM” value did it give?
**A.** 13.8%

**Q.** How did the “hERG current change (%, negative = inhibition) at 1uM” value turn out when COc1ccc(-c2nc(-c3ccc(Br)cc3)no2)c(OC)c1 was run?
**A.** -0.439%

**Q.** CCCNS(=O)(=O)c1ccc(OCC(=O)NCCCOC)cc1 was tested. Which “hERG current change (%, negative = inhibition) at 1uM” value did it give?
**A.** 2.25%

**Q.** How did the “hERG current change (%, negative = inhibition) at 1uM” value turn out when COc1ccc(CCCNC(=O)C2CCC(=O)N(CCc3cccc(F)c3)C2)cc1 (stereo not drawn) was run?
**A.** -16.6%

**Q.** CC(C)CCn1c2ccccc2c2cc(CC(N)=O)ccc21 was tested. Which “hERG current change (%, negative = inhibition) at 1uM” value did it give?
**A.** 10.2%

**Q.** With Cc1ccc(NC(=O)C2=C(O)CCn3c2nc2ccccc23)cc1 as the compound, how does the “hERG current change (%, negative = inhibition) at 1uM” value read?
**A.** 4.13%

**Q.** For Cc1nn(-c2ccc3ccccc3c2)c(=O)c2ccccc12, which “hERG current change (%, negative = inhibition) at 1uM” value is on record?
**A.** 19.1%

**Q.** How did the “hERG current change (%, negative = inhibition) at 1uM” value turn out when CC1(C)CC(=O)C(C=Nc2ccccc2Sc2ccccc2)=C(O)C1 was run?
**A.** 8.97%

**Q.** Which “hERG current change (%, negative = inhibition) at 1uM” value does the source give for Cc1csc(SCCN2C(=O)c3ccccc3C2=O)n1 here?
**A.** 11.7%

**Q.** With COc1ccc(Cc2nc3ccc(C(=O)NC4CCOC4)cc3o2)cc1 (stereo not drawn) as the compound, how does the “hERG current change (%, negative = inhibition) at 1uM” value read?
**A.** 17.6%

**Q.** With Cc1ccc(C(=O)NCCCc2ccccc2)c(C)c1 as the compound, how does the “hERG current change (%, negative = inhibition) at 1uM” value read?
**A.** 16.2%

**Q.** How did the “hERG current change (%, negative = inhibition) at 1uM” value turn out when Cc1ccc2[nH]c3c(NCc4ccco4)ncnc3c2c1 was run?
**A.** -0.139%

**Q.** With Cc1ccc(OCCN2C(=O)CSC2=O)cc1 as the compound, how does the “hERG current change (%, negative = inhibition) at 1uM” value read?
**A.** 3.39%

**Q.** How did the “hERG current change (%, negative = inhibition) at 1uM” value turn out when Cc1ccc(C)c(S(=O)(=O)N2CCN(c3ncccn3)CC2)c1 was run?
**A.** 12%

**Q.** Cc1cc(C)c(C(=O)COC(=O)CCn2c(C)csc2=O)cc1C was tested. Which “hERG current change (%, negative = inhibition) at 1uM” value did it give?
**A.** 3.15%

**Q.** Cc1ccc(S(=O)(=O)N2CCN(C(=O)c3ccco3)CC2)cc1 was tested. Which “hERG current change (%, negative = inhibition) at 1uM” value did it give?
**A.** 11.4%

**Q.** For CN(C)c1ccc(/C=N/NC2=NS(=O)(=O)c3ccccc32)cc1, which “hERG current change (%, negative = inhibition) at 1uM” value is on record?
**A.** 9.35%

**Q.** For C=CCn1c(SCC(=O)Nc2cccc(S(N)(=O)=O)c2)nnc1C1CCCCC1, which “hERG current change (%, negative = inhibition) at 1uM” value is on record?
**A.** 3.85%

**Q.** Which “hERG current change (%, negative = inhibition) at 1uM” value does the source give for COc1ccccc1N1C(=O)S/C(=C\c2cccs2)C1=O here?
**A.** 15.2%

**Q.** Which “hERG current change (%, negative = inhibition) at 1uM” value does the source give for CC(C)=CCN1CCN(Cc2cccc3nccnc23)CC1CCO (stereo not drawn) here?
**A.** -1.39%

**Q.** Which “hERG current change (%, negative = inhibition) at 1uM” value does the source give for CCn1nc(C(=O)OCC(=O)c2c[nH]c3ccccc23)c2ccccc2c1=O here?
**A.** -0.717%

**Q.** CCN(CC)CCNC(=O)c1ccc(NC(=O)C2CC(=O)N(c3ccc4c(c3)OCCO4)C2)cc1 (stereo not drawn) was tested. Which “hERG current change (%, negative = inhibition) at 1uM” value did it give?
**A.** 11.2%

**Q.** With Cl.c1ccc(CCn2nnnc2C(c2cccs2)N2CCN(Cc3ccc4c(c3)OCO4)CC2)cc1 (stereo not drawn) as the compound, how does the “hERG current change (%, negative = inhibition) at 1uM” value read?
**A.** -1.71%

**Q.** How did the “hERG current change (%, negative = inhibition) at 1uM” value turn out when Cc1ccc(C(=O)N/C(=C/c2ccco2)C(=O)NCC2CCCO2)cc1 (stereo not drawn) was run?
**A.** 0.646%

**Q.** Which “hERG current change (%, negative = inhibition) at 1uM” value does the source give for CCN(Cc1ccccc1)Cc1c(F)cccc1F here?
**A.** 1.77%

**Q.** Which “hERG current change (%, negative = inhibition) at 1uM” value does the source give for COc1cccc(CC(NC(C)=O)C(=O)NC2CCN(c3c4c(nc5ncnn35)CCC4)CC2)c1OC (stereo not drawn) here?
**A.** 12.2%

**Q.** How did the “hERG current change (%, negative = inhibition) at 1uM” value turn out when Cc1ccn(Cc2n[nH]c(=S)n2Cc2ccccc2)n1 was run?
**A.** 1.72%

**Q.** With CC(C)CN1CCN(Cc2cccc3ncccc23)CC1CCO (stereo not drawn) as the compound, how does the “hERG current change (%, negative = inhibition) at 1uM” value read?
**A.** 7.1%

**Q.** With CCc1cc(=O)oc2c(CNCc3ccc(OC)cc3OC)c(O)c(Cl)cc12.Cl as the compound, how does the “hERG current change (%, negative = inhibition) at 1uM” value read?
**A.** 9.76%

**Q.** How did the “hERG current change (%, negative = inhibition) at 1uM” value turn out when CC(=O)Nc1ccc(NS(=O)(=O)c2cc(Cl)ccc2Cl)cc1 was run?
**A.** -1.27%

**Q.** How did the “hERG current change (%, negative = inhibition) at 1uM” value turn out when O=C(CNS(=O)(=O)c1c(Cl)cccc1Cl)OCC(=O)c1ccc[nH]1 was run?
**A.** 11.5%

**Q.** Which “hERG current change (%, negative = inhibition) at 1uM” value does the source give for CCOc1cc(CNc2ccc(OC)cc2)cc(Br)c1OCC(=O)NC(C)(C)C here?
**A.** 7.47%

**Q.** For O=C(COc1ccc(Br)cc1CO)Nc1ccc(S(=O)(=O)N2CCCCC2)cc1, which “hERG current change (%, negative = inhibition) at 1uM” value is on record?
**A.** 9.86%

**Q.** For O=C1c2ccccc2C(Nc2ccc(S(=O)(=O)N3CCOCC3)cc2)N1c1cccnc1 (stereo not drawn), which “hERG current change (%, negative = inhibition) at 1uM” value is on record?
**A.** -1.69%

**Q.** For COc1ccc(NC(=O)c2ccc3ccccc3n2)cc1S(=O)(=O)Nc1ccccc1Cl, which “hERG current change (%, negative = inhibition) at 1uM” value is on record?
**A.** 19.4%

**Q.** How did the “hERG current change (%, negative = inhibition) at 1uM” value turn out when COc1ccc(C)cc1NC(=O)c1cc2ccccc2o1 was run?
**A.** 10%

**Q.** How did the “hERG current change (%, negative = inhibition) at 1uM” value turn out when CCOC(=O)C1=C(C)NC2=C(C(=O)CC(c3ccc(OC)c(OC)c3)C2)C1c1ccc(C)o1 (stereo not drawn) was run?
**A.** -11.2%

**Q.** With CN(CC(=O)Nc1ccc(F)c(F)c1F)C(=O)C1=COCCO1 as the compound, how does the “hERG current change (%, negative = inhibition) at 1uM” value read?
**A.** 16.5%
